Source: PubChem BioAssay AID1865 (National Center for Advancing Translational Sciences (NCATS), 2009)
The campaign covered roughly 280,000 compounds. About 540 (0.19%) were called active. The inconclusive results got no clear call from the source; some entries with a clear call stand among them for comparison. Calls come from the whole dose curve; as a rule, active = well fitted activation curve with a large enough effect; inconclusive = small, poorly fitted or top-dose-only effect; inactive = flat fitted curve, though single readings scatter. Where the call is inconclusive, the potency comes from a doubtful curve fit.
Potency is the fitted concentration of half-maximal effect; tags give direction and shape of the fitted curve.

Assay: Quantitative High-Throughput Screen for Regulators of Epigenetic Control; note: nearly all actives have a fitted effect of over 60% in size; for GFP activation: % of control where 0% means no effect
Settings: murine LDR cells, GFP reporter derepression, 30 h; GFP activation: at 53.9 µM (top of the series)
Text: NIH Molecular Libraries Screening Centers Network [MLPCN] NIH Chemical Genomics Center [NCGC] MLSCN Grant: 1 X01 MH079860-01 Assay Provider: Elisabeth D. Martinez, University of Texas SW Medical Center NCGC Assay Overview: The Locus Derepression (LDR) assay detects the derepression or induction of a GFP reporter that is stably integrated in a genomic region of murine cells that is presumably silenced. Transcription of the GFP reporter is controlled by a CMV promoter, which normally is constitutively active. However, this cell line, termed LDR, was selected for lack of constitutive production of GFP. GFP production can be induced by incubating the cells with histone deacetylase or DNA methyltransferase inhibitors (Martinez et al., 2006). Compounds that derepress or induce this reporter locus are identified by enumerating GFP positive cells using a laser-scanning microplate cytometer (Auld et al., 2006). This assay was screened against the MLSMR earlier (AID 597; (Johnson et al., 2008) and has been rescreened here against the expanded collection.
NCGC Assay Protocol Summary: Three hundred LDR cells in 5 uL per well were dispensed into black, clear-bottom 1536-well plates. Twenty-three nL compound was transferred to the assay plate and cells were incubated 30 hours at 37 C. Medium was removed, cells were washed two times with PBS, and GFP-positive cells were enumerated as fluorescent objects between the sizes of 20 to 120 um width and depth using an Acumen Explorer. References Auld, DS, Johnson, RL, Zhang, YQ, Veith, H, Jadhav, A, Yasgar, A, Simeonov, A, Zheng, W, Martinez, ED, Westwick, JK, Austin, CP, Inglese, J (2006). Fluorescent protein-based cellular assays analyzed by laser-scanning microplate cytometry in 1536-well plate format. Methods Enzymol 414: 566-89. Johnson, RL, Huang, W, Jadhav, A, Austin, CP, Inglese, J, Martinez, ED (2008). A quantitative high-throughput screen identifies potential epigenetic modulators of gene expression. Anal Biochem 375: 237-48. Martinez, ED, Dull, AB, Beutler, JA, Hager, GL (2006). High-content fluorescence-based screening for epigenetic modulators. Methods Enzymol 414: 21-36.
In the case of `O=C(Nc1cccc(Cl)c1Cl)c1cc2nc(-c3ccc4c(c3)OCO4)cc(C(F)(F)F)n2n1`, the Potency is reported as inconclusive: 5.01 µM [activator, single point]. With `Cc1ccc(N2C(=O)c3oc4cc(C)c(C)cc4c(=O)c3C2c2cccc(O)c2)nc1` (stereo unspecified) the Potency was inconclusive: 31.6 µM [activator, single point]. For `Cc1cc(C)c2c(=O)n(CC(=O)N3CCC(Cc4ccccc4)CC3)sc2n1`, the Potency was inconclusive: 31.6 µM [activator, single point]. In the case of `CCOc1ccc(NC(=O)Cn2cc(C(=O)c3ccc(OCC)cc3)c(=O)c3cc4c(cc32)OCCO4)cc1`, the Potency is reported as active: 20 µM. With `Fc1ccc(OCCCCN2CCOCC2)cc1` the Potency was inconclusive: 35.5 µM [activator, single point]. With `Nc1c(C(=O)NCc2ccc3c(c2)OCO3)nnn1CC(=O)Nc1ccc(Br)cc1` the Potency was inconclusive: 15.8 µM [activator, single point]. With `O=[N+]([O-])c1ccc(O)c2ncccc12` the Potency was active: 6.31 µM. For `Cc1ccc(SCC(=O)Nc2cccc(-c3nc4cc(Cl)ccc4o3)c2C)cc1`, the Potency was inconclusive: 31.6 µM [activator, single point]. With `O=C(O)CCNS(=O)(=O)c1ccc2c(c1)CCCC2` the Potency was inconclusive: 5.62 µM [activator, single point]. In the case of `Cc1cccn2c(=O)c(/C=C3\SC(=S)NC3=O)c(NCCCN3CCOCC3)nc12`, the Potency is reported as inconclusive: 14.1 µM [activator, partial curve]. For `Cc1cc(C)nc(S/C=C/C(=O)c2ccccc2)n1`, the Potency was inconclusive: 6.31 µM [activator, single point]. With `COc1ccccc1CCNC(=O)c1cc2ccccn2n1` the Potency was inconclusive: 8.91 µM [activator, partial curve, poor fit]. In the case of `COC(=O)c1cc(NC(=O)c2cccc(Cl)c2)c(=O)oc1/C=C/Nc1cc(C)cc(C)c1`, the Potency is reported as active: 3.55 µM. For `Cn1cnnc1SCC(=O)c1cccc([N+](=O)[O-])c1`, the “GFP activation” value was inactive: 1.06%. In the case of `Cc1ccc(-c2cc(-c3ccc(C)o3)nc(N)c2C#N)cc1`, the Potency is reported as inconclusive: 25.1 µM [activator, single point]. For `Cc1ccccc1NC(=O)CSc1nc2ccc(NC(=O)COc3ccccc3F)cc2s1`, the Potency was inconclusive: 35.5 µM [activator, single point]. In the case of `CC(C)(C)C(=O)COC(=O)CNC(=O)c1ccc(Oc2ccccc2)cc1`, the “GFP activation” value is reported as inactive: 4.34%. For `CCOC(=O)c1cnn(-c2cccc(F)c2)c1C1CCNCC1`, the “GFP activation” value was inactive: -1.26%. For `CCCCNC(=S)NNC(=O)c1nn(C)c(C)c1Cl`, the “GFP activation” value was inactive: 1.16%. With `CCOc1ccc(NC(=O)Cn2cc(C(=O)c3ccc(C)c(C)c3)c(=O)c3cc(F)ccc32)cc1` the Potency was inconclusive: 31.6 µM [activator, single point]. In the case of `C=CCn1c(COc2cccc3ccc(C)nc23)nnc1SCC(=O)OC`, the “GFP activation” value is reported as inactive: -0.19%. With `CCOCC(=O)Nc1cc(C(=O)OC)ccc1C(=O)OC` the “GFP activation” value was inactive: 0%. In the case of `COc1cc(O)c(C(=O)/C=C/c2ccccc2)c(OC)c1`, the Potency is reported as inconclusive: 31.6 µM [activator, single point]. In the case of `Cc1cccc[n+]1C1C(c2ccc([N+](=O)[O-])cc2)C(C#N)=C(C(=C=[N-])C#N)NC1(O)C1CC1` (stereo unspecified), the “GFP activation” value is reported as inactive: 1.95%. With `CCCCOC(=O)c1cc2c(cn1)[nH]c1ccccc12` the Potency was inconclusive: 31.6 µM [activator, single point]. In the case of `Cc1cccc(C(=O)Nc2cccc(OCc3cc(=O)n4c(C)csc4n3)c2)c1`, the Potency is reported as inconclusive: 11.2 µM [activator, partial curve]. In the case of `O=C(Nc1ccccc1N1CCOCC1)c1cc(Br)c(Br)s1`, the “GFP activation” value is reported as inactive: -0.365%. In the case of `CN1CCN(C(=S)Nc2cccc(S(=O)(=O)N(C)C)c2)CC1`, the “GFP activation” value is reported as inactive: -0.129%. With `Cc1ccc(Cn2nc(C)c(NC(=O)c3cc(-c4ccco4)on3)c2C)cc1` the Potency was inconclusive: 17.8 µM [activator, single point]. With `CCOc1ccccc1CNC(=O)CN1C(=O)CCc2cc(S(=O)(=O)N3CCCCC3)ccc21` the Potency was inconclusive: 14.1 µM [activator, single point]. For `COc1ccc(CN2C(=O)C(NC(=O)c3ccccc3OC)(C(F)(F)F)N=C2c2ccccc2)cc1` (stereo unspecified), the Potency was inconclusive: 35.5 µM [activator, single point]. With `COc1ccc(OC)c(C(c2nnnn2CCc2ccccc2)N2CCC(C(N)=O)CC2)c1` (stereo unspecified) the Potency was inconclusive: 6.31 µM [activator, single point]. In the case of `COC(=O)C1=C(COc2ccccc2)NC(=O)NC1c1ccc(Br)cc1` (stereo unspecified), the Potency is reported as inconclusive: 31.6 µM [activator, single point]. For `Clc1ccccc1Cc1cn2cc(-c3ccccc3)nc2s1`, the “GFP activation” value was inactive: 3.72%. In the case of `CS(=O)(=O)N(CC(=O)N1CCN(c2ccc(F)cc2)CC1)c1ccc(F)c(Cl)c1`, the “GFP activation” value is reported as inactive: 0%. With `O=S(=O)(Nc1ccc(-c2ccc(N3CCCC3)nn2)cc1)c1cc(F)ccc1F` the “GFP activation” value was inactive: 0%. With `COCCCNC(=S)N/N=C/c1cccc(OC)c1O` the “GFP activation” value was inactive: 3.23%. In the case of `O=C1/C(=C/c2c[nH]c3ccccc23)CCC/C1=C\c1c[nH]c2ccccc12`, the Potency is reported as inconclusive: 31.6 µM [activator, single point]. With `COc1cc(-c2cc(OC)c3c(C)oc(C)c3c(=O)c2)ccc1OC(=O)c1cccc(Cl)c1` the Potency was inconclusive: 22.4 µM [activator, single point]. With `CN1C(=S)SC(C)(C)C1(C)NO` (stereo unspecified) the Potency was inconclusive: 31.6 µM [activator, single point]. In the case of `Cc1c(C(=O)Nc2ccc(F)cc2F)sc2nc3n(c(=O)c12)N=C(c1ccccc1)CS3`, the Potency is reported as inconclusive: 15.8 µM [activator, single point]. In the case of `COc1ccc(-c2nn(-c3ccccc3)cc2/C=N/N2C(=O)CSC2=S)cc1`, the Potency is reported as inconclusive: 35.5 µM [activator, single point]. In the case of `O=C(c1ccccc1)c1ccccc1`, the “GFP activation” value is reported as inactive: -6.11%. For `CN1CCN(C(=S)c2ccc(-c3cccc([N+](=O)[O-])c3)o2)CC1`, the “GFP activation” value was inactive: 1.33%. With `C/C(=N\NC(=O)CSCc1ccc([N+](=O)[O-])cc1)c1ccccc1O` the “GFP activation” value was inactive: -1.09%. In the case of `CC(C)CCN(C(=O)Nc1ccc(Cl)c(Cl)c1)C(C)c1cccs1` (stereo unspecified), the “GFP activation” value is reported as inactive: -0.998%.
